The chains are these.
B1: SNGHZD (C3L + C6H): humanized antibody, light chain SEQ ID NO: 28, heavy chain SEQ ID NO: 32 (antibody)
heavy: QVQLVQSGAEVKKPGASVKVSCKASGYTFTSHNMHWVRQAPGQGLEWIGAIHPVNGDTAYNQKFKGKATLTVDKSTSTAYMELSSLRSEDTAVYYCAREGYGSVDYWGQGTLVTVSS[letters of human IgG1 constant region left out]
light: ETTVTQSPAFMSATPGDKVNISCITSTDIDDDMNWYQQKPGEAPILIISEGNTLRPGIPPRFSGSGYGTDFTLTINNIESEDAAYYFCLQSDNLPLTFGQGTKLEIKRTVAAPSVFIFPPSDEQLKSGTASVVCLLNNFYPREAKVQWKVDNALQSGNSQESVTEQDSKDSTYSLSSTLTLSKADYEKHKVYACEVTHQGLSSPVTKSFNRGEC
modifications: humanized SNGmB1 heavy chain V region T28 + Hu IgG1 C; humanized SNGmB1 light chain V region V4, P44, L46, S49 + Hu C
B2: SNGHZD (C3L + C5H): humanized antibody, light chain SEQ ID NO: 28, heavy chain SEQ ID NO: 30 (antibody)
heavy: QVQLVQSGAEVKKPGASVKVSCKASGYTFTSHNMHWVRQAPGQGLEWIGAIHPVNGDTAYNQKFKGKATLTVDKSTSTAYLELSSLRSEDTAVYYCAREGYGSVDYWGQGTLVTVSS[letters of human IgG1 constant region left out]
light: ETTVTQSPAFMSATPGDKVNISCITSTDIDDDMNWYQQKPGEAPILIISEGNTLRPGIPPRFSGSGYGTDFTLTINNIESEDAAYYFCLQSDNLPLTFGQGTKLEIKRTVAAPSVFIFPPSDEQLKSGTASVVCLLNNFYPREAKVQWKVDNALQSGNSQESVTEQDSKDSTYSLSSTLTLSKADYEKHKVYACEVTHQGLSSPVTKSFNRGEC
modifications: humanized SNGmB1 heavy chain V region T28, L81 + Hu IgG1 C; humanized SNGmB1 light chain V region V4, P44, L46, S49 + Hu C
B3: SNGHZD (C2L + C5H): humanized antibody, light chain SEQ ID NO: 26, heavy chain SEQ ID NO: 30 (antibody)
heavy: QVQLVQSGAEVKKPGASVKVSCKASGYTFTSHNMHWVRQAPGQGLEWIGAIHPVNGDTAYNQKFKGKATLTVDKSTSTAYLELSSLRSEDTAVYYCAREGYGSVDYWGQGTLVTVSS[letters of human IgG1 constant region left out]
light: ETTVTQSPAFMSATPGDKVNISCITSTDIDDDMNWYQQKPGEAAILIISEGNTLRPGIPPRFSSSGYGTDFTLTINNIESEDAAYYFCLQSDNLPLTFGQGTKLEIKRTVAAPSVFIFPPSDEQLKSGTASVVCLLNNFYPREAKVQWKVDNALQSGNSQESVTEQDSKDSTYSLSSTLTLSKADYEKHKVYACEVTHQGLSSPVTKSFNRGEC
modifications: humanized SNGmB1 heavy chain V region T28, L81 + Hu IgG1 C; humanized SNGmB1 light chain V region V4, L46, S49, S64 + Hu C
B4: SNGHZD (C1L + C5H): humanized antibody, light chain SEQ ID NO: 24, heavy chain SEQ ID NO: 30 (antibody)
heavy: QVQLVQSGAEVKKPGASVKVSCKASGYTFTSHNMHWVRQAPGQGLEWIGAIHPVNGDTAYNQKFKGKATLTVDKSTSTAYLELSSLRSEDTAVYYCAREGYGSVDYWGQGTLVTVSS[letters of human IgG1 constant region left out]
light: ETTVTQSPAFMSATPGDKVNISCITSTDIDDDMNWYQQKPGEAPILIISEGNTLRPGIPPRFSSSGYGTDFTLTINNIESEDAAYYFCLQSDNLPLTFGQGTKLEIKRTVAAPSVFIFPPSDEQLKSGTASVVCLLNNFYPREAKVQWKVDNALQSGNSQESVTEQDSKDSTYSLSSTLTLSKADYEKHKVYACEVTHQGLSSPVTKSFNRGEC
modifications: humanized SNGmB1 heavy chain V region T28, L81 + Hu IgG1 C; humanized SNGmB1 light chain V region V4, P44, L46, S49, S64 + Hu C
B5: SNGHZD (C2L + C6H): humanized antibody, light chain SEQ ID NO: 26, heavy chain SEQ ID NO: 32 (antibody)
heavy: QVQLVQSGAEVKKPGASVKVSCKASGYTFTSHNMHWVRQAPGQGLEWIGAIHPVNGDTAYNQKFKGKATLTVDKSTSTAYMELSSLRSEDTAVYYCAREGYGSVDYWGQGTLVTVSS[letters of human IgG1 constant region left out]
light: ETTVTQSPAFMSATPGDKVNISCITSTDIDDDMNWYQQKPGEAAILIISEGNTLRPGIPPRFSSSGYGTDFTLTINNIESEDAAYYFCLQSDNLPLTFGQGTKLEIKRTVAAPSVFIFPPSDEQLKSGTASVVCLLNNFYPREAKVQWKVDNALQSGNSQESVTEQDSKDSTYSLSSTLTLSKADYEKHKVYACEVTHQGLSSPVTKSFNRGEC
modifications: humanized SNGmB1 heavy chain V region T28 + Hu IgG1 C; humanized SNGmB1 light chain V region V4, L46, S49, S64 + Hu C
B6: SNGHZD (C1L + C6H): humanized antibody, light chain SEQ ID NO: 24, heavy chain SEQ ID NO: 32 (antibody)
heavy: QVQLVQSGAEVKKPGASVKVSCKASGYTFTSHNMHWVRQAPGQGLEWIGAIHPVNGDTAYNQKFKGKATLTVDKSTSTAYMELSSLRSEDTAVYYCAREGYGSVDYWGQGTLVTVSS[letters of human IgG1 constant region left out]
light: ETTVTQSPAFMSATPGDKVNISCITSTDIDDDMNWYQQKPGEAPILIISEGNTLRPGIPPRFSSSGYGTDFTLTINNIESEDAAYYFCLQSDNLPLTFGQGTKLEIKRTVAAPSVFIFPPSDEQLKSGTASVVCLLNNFYPREAKVQWKVDNALQSGNSQESVTEQDSKDSTYSLSSTLTLSKADYEKHKVYACEVTHQGLSSPVTKSFNRGEC
modifications: humanized SNGmB1 heavy chain V region T28 + Hu IgG1 C; humanized SNGmB1 light chain V region V4, P44, L46, S49, S64 + Hu C
B7: SNGhB1: chimeric antibody: SNGmB1 V regions + human κC and human IgG1 C, SEQ ID NO: 20 and 22 (protein)
light: ETTVTQSPASLSMTIGEKVTIRCITSTDIDDDMNWYRKKPGQPPKLLISEGNTLRPGVPSRFSSSGYGTDFVFTIENMLSEDVADYYCLQSDNLPLTFGAGTKLELKRTVAAPSVFIFPPSDEQLKSGTASVVCLLNNFYPREAKVQWKVDNALQSGNSQESVTEQDSKDSTYSLSSTLTLSKADYEKHKVYACEVTHQGLSSPVTKSFNRGEC
heavy: QAYLQQSGAELVRPGASVKMSCKASGYTFTSHNMHWIKQTPRQGLEWIGAIHPVNGDTAYNQKFKGKATLTVDKSSSTAYLQLSSLTSEESAVYFCAREGYGSVDYWGQGTTLTVSS[letters of human IgG1 constant region left out]
modifications: SNGmB1 light chain V region + Hu C; SNGmB1 heavy chain V region + Hu IgG1 C

In the assay the target is T1, ER-α36 (Homo sapiens, UniProt P03372).
T1 sequence (P03372 284-310 isoform P03372-4): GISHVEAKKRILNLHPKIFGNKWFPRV
Kind of assay: Biacore binding affinity of chimeric and humanized antibodies (Example 9). On the procedure:
The humanized antibodies were purified and characterized using ELISA and Biacore for binding analysis.
The humanized antibodies were tested for their binding affinity to ER-α36.
(SPR reads the build-up and loss of mass on a sensor chip optically.)
Consider B1, for which the Ka stood at 1.33e+06 M⁻¹ s⁻¹.
B2 displayed a Ka of 3.54e+06 M⁻¹ s⁻¹.
B3 registered a Ka of 3.46e+06 M⁻¹ s⁻¹.
With B4, the Ka was 744000 M⁻¹ s⁻¹.
B5 registered a Ka of 1.28e+06 M⁻¹ s⁻¹.
As for B6, the Ka turned out to be 2.89e+06 M⁻¹ s⁻¹.
B7 had a Ka of 1.74e+06 M⁻¹ s⁻¹.
